Data reported in PubChem BioAssay AID1159614 (National Center for Advancing Translational Sciences (NCATS), 2016).
About 65 (0.1%) of roughly 45,000 compounds were called active. Calls come from the whole dose curve; as a rule, active = well fitted activation curve with a large enough effect; inconclusive = small, poorly fitted or top-dose-only effect; inactive = no such curve, though single readings can be large or run the other way. The list shows a part of the results.

Target: Galactocerebrosidase (Homo sapiens) (UniProt P54803)
Experiment: A Novel Cell-Based Assay to Identify Small Molecules for B -Galactocerebrosidase; note: 0% is about no effect; nearly all actives have a fitted effect of over 65% in size
Details: 145M-Twi-hGALC-G270D cells (Twitcher mouse brain line with human GALC G270D), HMU-beta-Gal fluorescence, 48 h; series mostly up to 57.5 µM; activation: at the top concentration
Outline: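 Fluorogenic HMU-b-Gal hydrolysis (0.1 mM final, pH 5.2 citrate-phosphate with 1 mg/mL sodium taurocholate; carbonate stop buffer) measures mutant GALC activity after compound treatment of live 145M-Twi Twitcher brain cells stably carrying human GALC-G270D, with wild-type GALC line alongside; activation sought.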

Sequence of UniProt P54803 (P54803 whole entry, looked up): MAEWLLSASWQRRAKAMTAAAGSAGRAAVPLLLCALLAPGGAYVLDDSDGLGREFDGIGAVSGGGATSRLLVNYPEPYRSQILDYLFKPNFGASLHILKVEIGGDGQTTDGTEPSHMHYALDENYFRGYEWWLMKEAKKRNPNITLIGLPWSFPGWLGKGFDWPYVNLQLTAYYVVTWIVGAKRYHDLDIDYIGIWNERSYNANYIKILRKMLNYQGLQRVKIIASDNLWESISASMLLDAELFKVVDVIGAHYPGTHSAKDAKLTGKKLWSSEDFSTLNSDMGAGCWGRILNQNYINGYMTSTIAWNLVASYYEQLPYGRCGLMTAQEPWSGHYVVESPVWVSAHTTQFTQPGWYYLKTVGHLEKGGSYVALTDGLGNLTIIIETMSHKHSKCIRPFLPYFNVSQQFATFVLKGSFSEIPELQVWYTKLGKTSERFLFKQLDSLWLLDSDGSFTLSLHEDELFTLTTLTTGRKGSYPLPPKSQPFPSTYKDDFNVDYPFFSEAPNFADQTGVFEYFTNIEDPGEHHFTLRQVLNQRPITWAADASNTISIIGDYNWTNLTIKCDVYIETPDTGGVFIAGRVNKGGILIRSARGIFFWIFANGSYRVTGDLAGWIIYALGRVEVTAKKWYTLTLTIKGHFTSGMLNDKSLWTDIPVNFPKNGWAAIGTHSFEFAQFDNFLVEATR

activation, inactive:
COc1ccc(-c2nc3c(c(SC)n2)Cc2c(CO)cnc(C)c2O3)cc1 -2.3%
O=C(NCCCN1CCN(c2cccc(Cl)c2)CC1)c1sc2ncccc2c1-n1cccc1 -25.4%
Cc1ccc(-c2nc(CS(=O)(=O)CC(=O)Nc3ccc(Br)cc3F)c(C)o2)cc1 -18.3%
CCOc1ccc(NC(=O)CSC2=Nc3ccccc3C3=NC(CCC(=O)NCc4ccco4)C(=O)N23)cc1 (stereo not drawn) -7.64%
CCC(=O)Oc1c(Sc2ccc(Cl)cc2)c(C)nn1-c1ccccc1 -15.1%
Cc1ccc(Cl)cc1N1CCN(C(=O)Cn2ncc3c4ccccc4n(C)c3c2=O)CC1 -9.3%
COc1ccc(S(=O)(=O)NCc2nc3nc(C)cc(C)n3n2)cc1 -14.1%
Cc1ccc(Nc2c(-c3ccc(Br)o3)nc3ccccn23)cc1 22%
COc1ccc2oc(=O)c(-c3nnc(-c4ccc(C)cc4)o3)cc2c1 7.79%
Cc1cc2c(cc1S(=O)(=O)Nc1ccc(OC(F)(F)F)cc1)OCC(=O)N2 -15.4%
CCN(CC)S(=O)(=O)c1ccc2c(c1)N(CC(=O)NCc1ccccc1)C(=O)C1CCCCN21 (stereo not drawn) -27.3%
CC1CCCN(c2nc3c(-c4ccc(Cl)cc4)nnn3c3ccccc23)C1 (stereo not drawn) 4.32%
Cc1cc(Cl)ccc1NS(=O)(=O)c1c(C(=O)N2CCC(C)CC2)c(C)n(C)c1C -8%
Cc1ccc(-c2csc(-c3cc4c([nH]c3=O)CC(c3ccccc3)CC4=O)n2)cc1 (stereo not drawn) -22.3%
Cc1ccccc1NC(=O)CSc1nc2nccnc2c(=O)n1CCc1c[nH]c2ccccc12 -5.24%
COc1ccc(S(=O)(=O)c2cnc3ccc(Cl)cc3c2N2CCCCC2C)cc1 (stereo not drawn) -10.4%
Cc1cc(C)cc(OCC(=O)Nc2c(C)ccc3nsnc23)c1 -8.79%
CCCCN(C)CCCNC(=O)Cn1ncc2c3ccccc3n(Cc3ccccc3)c2c1=O 5.47%
Cc1cccc(NC(=O)CSc2nccn2Cc2ccc(F)cc2)c1C -0.708%
CCOc1ccc(N(CC)S(=O)(=O)c2cc(Br)cc3c2N(C(C)=O)C(C)C3)cc1 (stereo not drawn) -0.922%
COc1ccc(NC(=O)CSc2nc(-c3ccco3)cc(C(F)(F)F)n2)cc1OC -21.2%
Cc1cccc(N2CCN(C(=O)Cn3nc(C)n4cccc4c3=O)CC2C)c1 (stereo not drawn) -13.6%
CN(Cc1ccccc1)S(=O)(=O)c1nnc(NC(=O)c2cccc(Cl)c2)s1 -18.6%
COc1ccccc1NC(=O)CSC1=Nc2ccccc2C2=NC(CC(=O)NCc3ccco3)C(=O)N12 (stereo not drawn) -11.5%
CCOc1ccccc1CN1CCN(S(=O)(=O)c2ccccc2)CC1 -2.09%
CCOC(=O)c1c(-c2ccccc2)oc2ccc(NS(=O)(=O)c3cc(C)c(C)cc3C)cc12 -13.2%
Cc1ccc(C(=O)Nc2cc3c(cc2C)n(C)c(=O)c(=O)n3C)cc1 -4.65%
O=C(CN1N=C(c2ccc(Cl)cc2)CCC1=O)NCCc1ccc(Cl)cc1 -6.96%
COCc1nc2ccccc2n1CCOc1cccc(C)c1 -9.34%
COc1ccc(S(=O)(=O)N2CCCN(CC(=O)Nc3ccc(NC(C)=O)cc3)CC2)cc1 -15.4%
CC(=O)c1cccc(NC(=O)c2oc3c(c2C)-c2nn(Cc4ccc(Cl)cc4)cc2CC3)c1 -26.7%
Cc1ccccc1NC(=O)c1ccc2c(c1)c(C)c(C)n2Cc1ccccc1 -8.79%
Cc1nc2c(C(=O)NCCCN(CC(C)C)CC(C)C)cnn2c(C)c1Cc1c(F)cccc1Cl -21.2%
CCCOC(=O)c1c(NC(=O)c2nc3ncccn3n2)sc(C(N)=O)c1C -16.6%
CCc1ccc(-n2nc(C)c3c(C)cc(=O)n(Cc4nc(-c5ccccc5)oc4C)c32)cc1 -3.32%
COc1ccc(OC)c(CNC(=O)c2ccc(Sc3ccc(C)cc3)c(N)c2)c1 -5.74%
Cc1ccc(NC(=O)CN2C(=O)CCc3cc(S(=O)(=O)N4CCOCC4)ccc32)cc1F -5.8%
Cc1cccc(CNC(=O)CCn2c(=O)c3cccn3c3ccc(F)cc32)c1 -5.47%
Clc1ccc(Nc2nnc(Cc3ccncc3)c3ccccc23)cc1 -11.4%
CCCc1nn2c(=O)cc(COC(=O)c3ccccc3NC(=O)COc3ccccc3F)nc2s1 2.08%
COc1ccc(NC(=O)c2oc3ccc(S(=O)(=O)N4CCCCC4)cc3c2C)cc1 -21.3%
CCOc1ccc(CNC(=O)C2Cc3ccccc3N2C(=O)CC)cc1OC (stereo not drawn) -4.4%
CCOC(=O)CSc1nc(-c2ccc(C)cc2C)cc(-c2ccccc2)c1C#N -1.66%
Cc1ccc(C(=O)CSc2nc(-c3ccccc3)nc3c2CCCC3)cc1 -6.28%
CCOc1ccccc1NC(=O)N1CC(CC)Oc2ccccc21 (stereo not drawn) -11.4%
C#Cc1ccc(-c2ccccc2F)cc1 -17.9%
COc1cccc(CNCCNC(=O)c2nonc2N)c1 -10.8%
CCSc1nc2c([nH]c3ccccc32)c(=O)n1CC -7.84%
O=C(NCc1ccccc1Cl)c1cc2c(s1)-c1ccc(Cl)cc1SC2 -10.1%
Cc1cccc(NS(=O)(=O)c2c(C)nc3sccn3c2=O)c1C -14.8%
O=C(Cn1c(=O)nc(-c2ccccc2)c2ccccc21)Nc1cccc(C(F)(F)F)c1 -16.1%
Cc1c(C(=O)NCc2cccc(Cl)c2)sc2ncnc(N(C)C3CCCCC3)c12 -6.89%
CC(C)(C)C(=O)Nc1cccc(-c2cn3cccnc3n2)c1 -10%
CC(=O)N1CCc2c(sc(NC(=O)CSc3ccccc3)c2-c2nc3ccccc3s2)C1 -12.9%
COc1cccc(-n2c(=O)c3c(C)c(C)sc3n(CC(=O)NCc3ccc(C)cc3)c2=O)c1 -18.7%
Cc1cccc(CSc2ncc(Cl)c(C(=O)Nc3sc4c(c3C(N)=O)CCCC4)n2)c1 4.03%
CCOc1ccc(CCNC(=O)c2cc3c(=O)oc4ccc(C)cc4c3s2)cc1OCC -3.3%
COc1ccc(-c2cn(-c3ccc(C)cc3)c(S(=O)(=O)CC(=O)Nc3ccc(F)cc3)n2)cc1 -41.2%
COc1ccccc1NC(=O)c1cc(=O)c2ccc(C)c(C)c2o1 -11.1%
CCOC(=O)c1ccc2c(c1)N(CC(=O)N(C)c1ccccc1)C(=O)c1ccccc1S2 -30.8%
Cc1ccc(Cc2c(C)nc3nc(SCC(=O)NC4CCC(C)CC4)nn3c2C)cc1 (stereo not drawn) -3.89%
O=C(CC1N=C2c3ccccc3N=C(SCc3cccc(Cl)c3)N2C1=O)NCc1ccc2c(c1)OCO2 (stereo not drawn) -8.02%
CC1CCCCN1C(=O)CSc1n[nH]c(-c2ccccc2Cl)n1 (stereo not drawn) -9.4%
COc1cc(Nc2nc(SCC(=O)c3ccc(Br)cc3)nc3ccccc23)cc(OC)c1 -9.4%
N#C/C(=C\c1ccc(-c2ccc(C(=O)O)cc2)o1)C(=O)Nc1ccccc1C(=O)O -8.43%
Cc1nn(CCC(=O)Nc2cc(F)ccc2F)c(=O)c2nn(-c3ccccc3)c(C)c12 -5.21%
CCOC(=O)[C@H](CCc1ccccc1)N[C@@H](C)C(=O)N1Cc2cc(OC)c(OC)cc2C[C@H]1C(=O)O -16.6%
COc1cccc(NC(=O)CCNS(=O)(=O)c2ccc3c(c2)oc(=O)n3C)c1 -7.1%
O=C1CCCc2cc(S(=O)(=O)N3CCCC(C(=O)NCc4ccccc4)C3)ccc2N1 (stereo not drawn) -25.9%
CC(=O)c1cccc(NC(=O)c2nc(-c3ccccc3)n(-c3ccccc3)n2)c1 -21.4%
Cc1cc(C)c(NC(=O)CN(C)S(=O)(=O)c2ccc3c(c2)CCC(=O)N3)c(C)c1 -20.5%
O=C(Oc1cccc2cccnc12)c1ccccc1 -16.9%
COc1cc2c(cc1OC)n(Cc1cccc(C(F)(F)F)c1)c(=O)n1nc(-c3ccccc3)nc21 -4.82%
COc1cc2c(cc1OC)C(COc1cccc(C(F)(F)F)c1)N(C(=O)c1ccc(S(=O)(=O)N3CCCC3)cc1)CC2 (stereo not drawn) -18.2%
CCc1ccccc1NC(=O)C(=O)NCCCN1CCOCC1 2.29%
CCC(C)NC(=O)C1CCN(S(=O)(=O)c2ccc3c(c2)CCCN3C(C)=O)CC1 (stereo not drawn) -13.7%
CCn1cc(C(=O)N2CCN(c3ccc(C)cc3)C(C)C2)c(=O)c2cc(S(=O)(=O)N3CCCC3)ccc21 (stereo not drawn) -17.2%
Cc1cc(C)c(NC(=O)CCS(=O)(=O)c2cc3c(cc2Cl)NC(=O)CO3)c(C)c1 -14.8%
CCOc1ccc(NS(=O)(=O)c2cc3c(cc2Cl)NC(=O)CO3)cc1 -16.9%
CCOc1ccc(N(C)S(=O)(=O)c2ccc3c(c2)CCCN3C(C)=O)cc1 -10.2%
CC(=O)Nc1ccc(NC(=O)CCCn2nc(C)c3sc4ccccc4c3c2=O)cc1 -21.2%
O=C(CSCn1nnc2c(=O)[nH]c(Cc3ccc(F)cc3)nc21)Nc1cccc(C(F)(F)F)c1 -12.9%
CN1CCC(OC(c2ccccc2)c2ccccc2)CC1 -17.1%
CCOc1ccc(NC(=O)c2ccc3[nH]c(C)c(C)c3c2)cc1 -1.15%
Cc1ccc(S(=O)(=O)Nc2cccc(-c3cn4cccc(C)c4n3)c2)c(C)c1 -6.15%
O=C(Cn1c(=O)c2cccn2c2cccnc21)NCc1cccc(F)c1 -6.7%
O=C(Cn1c(SCc2ccccc2F)nc2ccncc21)Nc1ccccc1C(F)(F)F -9.45%
CNC(=O)CCCN1C(=O)c2cccnc2Sc2ccccc21 -14.3%
CCOc1cc(C(=O)NCCc2sc(-c3ccc(F)cc3)nc2C)cc(OCC)c1OCC -20.1%
Cc1nc2n(c(=O)c1CCN1CCC(C(=O)c3ccc(F)cc3)CC1)CCS2 -8.53%
Cc1nc2ccc(S(=O)(=O)N(CC(=O)Nc3ccc(F)cc3F)Cc3ccccc3)cc2s1 -6.07%
CCCCC(=O)OC1=C(C(=O)c2ccccc2)N(CCC)S(=O)(=O)c2ccccc21 -39.9%
Cc1ccsc1CN1CCc2nc(Nc3ccccc3)ncc2C1 5.35%
CC(NC(=O)CSc1n[nH]c(-c2ccccc2Cl)n1)c1nc2ccccc2[nH]1 (stereo not drawn) -14.4%
CN(C)C(=O)Oc1cccc([N+](C)(C)C)c1 -6.95%
CCCCN(C)C(=O)c1cn(C)c2ccc(S(=O)(=O)N3CCC(C)CC3)cc2c1=O -20.5%
Cc1ccccc1NC(=O)Cn1cc(C(=O)c2cccs2)c2ccccc21 -7.26%
O=C(Cn1ccc2cc(S(=O)(=O)N3CCCCC3)ccc21)NCCc1ccccc1Cl 2.63%
